# In PubChem BioAssay (NCATS):
# “And” between values parts separate entries of the source, which are not always exact repeats. Equal entries are not always repeated. The inconclusive results got no clear call from the source; some entries with a clear call stand among them for comparison. Where the call is inconclusive, the potency comes from a doubtful curve fit. Some structures have more than one record in an assay (separate samples or runs), and their calls can disagree. The source made the active and inactive calls. Calls come from the whole dose curve; as a rule, active = well fitted curve in the direction sought with a large enough effect; inconclusive = small, poorly fitted or top-dose-only effect, or another doubt; inactive = no such curve, though single readings can be large; an effect the other way counts as inactive or inconclusive.
# Legend:
# Tov-21-G = experiment: Primary qHTS to identify gynecologic anti-cancer compounds using libraries of approved drugs and bioactive compounds (AID 1345084); settings: Gynecologic cancer cell panel viability, ATPlite luminescence, 48 h; series mostly up to 57.5 µM; note: nearly all actives have a fitted effect of over 55% in size
# How it was run: (§1)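 Cells, 1,000 per well, plated 16 h, then exposed 48 h at 37 C to compounds. Viability by ATPlite luminescence after 15 min at room temperature.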
# Tov112D = experiment: as above; settings: Gynecologic cancer cell panel viability, ATPlite luminescence, 48 h; series mostly up to 57.5 µM
# How it was run: as §1
# [1] = Drug repurposing screens with cells derived from glioblastoma tumor samples (AID 1345199); settings: GBM patient neurospheres viability, ATP luminescence, 48 h; Potency: tumour line A unless noted; series mostly up to 46 µM; note: nearly all actives have a fitted effect of over 40% in size
# How it was run: (§2)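 Primary testing used CD133+ neurospheres from four GBM patients, seven concentrations, 48 h exposure and ATP-based viability; confirmation added three slower-growing patient lines.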
# astro = experiment: as above; settings: viability, ATP luminescence, 48 h; series mostly up to 45.9 µM
# How it was run: as §2
# Potency is the fitted concentration of half-maximal effect; tags give direction and shape of the fitted curve.
structure (smiles),measurement,setting,value
CCn1cc(C(=O)O)c(=O)c2cc(F)c(N3CCNC(C)C3)c(F)c21 (stereo not drawn),Potency,Tov-21-G,inactive
Cc1ccc(C(=O)Nc2ccc(S(=O)(=O)O)c3cc(S(=O)(=O)O)cc(S(=O)(=O)O)c23)cc1NC(=O)c1cccc(NC(=O)Nc2cccc(C(=O)Nc3cc(C(=O)Nc4ccc(S(=O)(=O)O)c5cc(S(=O)(=O)O)cc(S(=O)(=O)O)c45)ccc3C)c2)c1,Potency,Tov-21-G,inactive
same,Potency,Tov112D,inactive
O=c1cc(CN2CCOCC2)occ1OCCCCCSc1ccnc2cc(C(F)(F)F)ccc12,Potency,Tov-21-G,inactive
CCC(C(=O)O)c1ccc(N2Cc3ccccc3C2=O)cc1 (stereo not drawn),Potency,Tov-21-G,inactive
NS(=O)(=O)c1cc(C(=O)O)c(NCc2ccco2)cc1Cl,Potency,Tov-21-G,inactive
same,Potency,Tov112D,inactive
same,Potency,[1],"inconclusive: 35.5 µM [inhibitor, single point]"
CCc1nn(CCCN2CCN(c3cccc(Cl)c3)CC2)c(=O)n1CCOc1ccccc1,Potency,Tov-21-G,inactive
Cc1csc(NC(=O)c2sc3nc4c(c(C(F)(F)F)c3c2N)CCC4)n1,Potency,Tov-21-G,active: 3.55 µM
same,Potency,Tov112D,active: 11.2 µM
O=C(NOCC1CC1)c1ccc(F)c(F)c1Nc1ccc(I)cc1Cl,Potency,Tov-21-G,"inconclusive: 3.55 µM [cytotoxic, full curve] and inconclusive: 31.6 µM [cytotoxic, single point]"
CN1Cc2cc(C(=O)N3CCC(C4CCNCC4)CC3)ccc2NC(CC(=O)O)C1=O (stereo not drawn),Potency,Tov-21-G,inactive
Cc1cc(C(C)(C)C)c(O)c(C)c1CC1=NCCN1,Potency,Tov-21-G,"inconclusive: 39.8 µM [cytotoxic, single point]"
COc1cccc(-c2ccc(NC(=O)C3=C(C(=O)O)CCC3)c(F)c2)c1,Potency,Tov-21-G,"inconclusive: 35.5 µM [cytotoxic, single point]"
same,Potency,Tov112D,"inconclusive: 39.8 µM [cytotoxic, single point]"
Nc1cc(C(F)(F)F)ccc1S,Potency,Tov-21-G,inactive
Cc1ccccc1C(C(=O)NC1CCCCC1)N(C(=O)Cn1ccnc1C)c1cccc(F)c1 (stereo not drawn),Potency,Tov-21-G,inactive
CNCc1ccc(-c2[nH]c3cc(F)cc4c3c2CCNC4=O)cc1,Potency,Tov-21-G,inactive
C[N+](C)(C)CC(=O)O,Potency,Tov-21-G,inactive
CCCS(=O)c1ccc2nc(NC(=O)OC)[nH]c2c1 (stereo not drawn),Potency,Tov-21-G,"inconclusive: 35.5 µM [cytotoxic, single point] and inconclusive: 22.4 µM [cytotoxic, single point]"
same,Potency,Tov112D,"inconclusive: 39.8 µM [cytotoxic, single point]"
NC(=O)N/N=C/c1ccc([N+](=O)[O-])o1,Potency,Tov-21-G,active: 39.8 µM
same,Potency,Tov112D,"inconclusive: 35.5 µM [cytotoxic, partial curve]"
same,Potency,[1],inactive
Nc1ccccc1NC(=O)c1ccc(CNC(=O)OCc2cccnc2)cc1,Potency,Tov-21-G,active: 8.91 µM
same,Potency,Tov112D,"inconclusive: 22.4 µM [cytotoxic, single point]"
CC(=O)N(C)C1(c2ccccc2)CCN(CCC[C@]2(c3ccc(Cl)c(Cl)c3)CCCN(C(=O)c3ccccc3)C2)CC1,Potency,Tov-21-G,"inconclusive: 20 µM [cytotoxic, single point]"
same,Potency,Tov112D,"inconclusive: 39.8 µM [cytotoxic, single point]"
NC(=O)c1cccc2[nH]c(-c3ccc([C@H]4CCCN4)cc3F)nc12,Potency,Tov-21-G,active: 14.1 µM
same,Potency,Tov112D,active: 12.6 µM
CC(C)C(=O)Nc1ncc(-c2cc(C(F)F)nn2-c2c(Cl)cccc2Cl)s1,Potency,Tov-21-G,"inconclusive: 31.6 µM [cytotoxic, single point]"
same,Potency,Tov112D,"inconclusive: 39.8 µM [cytotoxic, single point]"
COc1ccc2nc(NC(=O)Nc3ccccc3)sc2c1,Potency,Tov-21-G,"inconclusive: 20 µM [cytotoxic, partial curve]"
same,Potency,Tov112D,"inconclusive: 28.2 µM [cytotoxic, single point]"
CN(C)c1ccc(Nc2nc(N)n(C(=O)c3c(F)cccc3F)n2)cc1,Potency,Tov-21-G,inactive
C#C[C@]1(O)CC[C@H]2[C@@H]3CCc4cc(O)ccc4[C@H]3CC[C@@]21C,Potency,Tov-21-G,"inconclusive: 35.5 µM [cytotoxic, single point]"
same,Potency,Tov112D,"inconclusive: 39.8 µM [cytotoxic, single point]"
same,Potency,[1],active: 12.6 µM
same,Potency,astro,"inconclusive: 22.4 µM [inhibitor, partial curve]"
N=C1N=C(N)c2cc3ccccc3cc21,Potency,Tov-21-G,active: 35.5 µM
same,Potency,Tov112D,"inconclusive: 44.7 µM [cytotoxic, single point]"
O=c1[nH]c2ccccc2n1CCCN1CCN(C(c2ccccc2)c2ccccc2)CC1,Potency,Tov-21-G,"inconclusive: 31.6 µM [cytotoxic, single point]"
